# Measured values taken from the RNAGym collection of RNA variant scans (doi:10.7554/elife.90254).
# Read counts are not given, so values of variants with three or more changes are uncertain.
# B1: OR4K15 (parent)
# chain: GUUAACGGUCAUAGGCCAUGGAAACUAGGAGCACCAUUUCGCUGCCAGUGAAGAAAUGAACAAAGAAAAUCUGGGCCAGGCAGGCAUCAAAAGAAAUAGUCUUGCGCUCAACCAGAAAGUCUGUAAUCAUUUUAAGGGUA
# Variants of: B1
# Assay: self-cleavage, relative activity (ratio to wild type); higher = more cleavage; in vitro, sequencing; the parent is a self-cleaving ribozyme
row,Variant,self-cleavage
1,GAUAACGGUCAUAGGCCAUGGAAACUAGGAGCACCAUUUCGCUGCCAGUGAAGAAAUGAACAAAGAUAAUCUGGGCCAGGCAGGCAUCAAAAGAAAUAGCCUUGCGCUCAACCAGAAAGUCUGUAAUCAUUUUAAGGGUA,0.65
2,GUUAACGGUCAUAGGCCAUGGAAACUAGGAGCACCAUUUCGCUGCCAGUGAGGAAAUGAGCAAAGAAGAUCUGGGCCAGGCAGGCAUCAAAAGAAGUAGUCAUGCGCUUAACCAGAAAGUCUGUAAUCAUUUUAAGGGUA,0.09
3,GUUAACGGUCAUAGGCCAUGGAAACUAGGAGCACCAUUUCGCUGCCAGUGAAGAAAUGAACAAAGAAAAUCUGGGCCAGGCAGGCAUCGAAAGAAGUAGUCUUGCGCCCAACCAGAAAGUCUGUAAUCAUUCUAAGGGUA,0.02
4,GUUAACGGUCAUAGGCCAGGGAAACUAGGAGCACCAUUUCGCUGCCAGUGAGGAAAUGAACAAAGAAAAUCUGGGCCGGGCAGGCAUCAAAAGAAAUAGUCUUGCGCUCAACCAGAAAGUCUGUAAUCAUUUUAAGGGUA,0.45
5,GUUAACAGUCAUAGGCCAUGGAAACUAGGGGCACCAUUUCGCUGCCAGUGAAGAAAUGAACAAAGAAAAUCUGGGCCAGGCAGGCAUCAAAAGAAAUAGUCUUGCGCUCGACCAGAAAGUCUGUAAUCAUUUUAAGGGUA,0.15
6,GUUAACGGUCAUAGGCCAUGGAAACUAGGGGCGCCAUCUCGCUGCCGGUGAAGAAAUGAACAAAGAAAAUCUGGGCCAGGCAGGCAUCAAAAGAAAUAGUCUUGCGCUCAACCAGAAAGUCUGUGAUCAUUUUAAGAGUA,0.17
7,GUUAACGGUCAUAGGCCAAGGAAACUAGGAGCACCACUUCGCUGCCAGUGUAGAAAUGAACAAAGAAAAUCUGGGCCAGGCAGGCAUCAAAAGAAAUAGUCUUGCGCUCAACCAGAAAGUCUGUAAUCAUUUUAAGGGUA,0.81
8,GUUAACAGUCAUGGGCCAUGGAAACUAGGAGCACCAUUUCGCUGCCAGUGAAGAAAUGAACAGAGAAAAUCUGGGCCAGGCAGGCAUCAAAAGAAAUAGUCUUGCGCUCAACCAGAAAGUCUGUAAUCAUUUUAAGGGUA,1.13
9,GUUAACGGCCAUGGGCCAUGGAAGCUAGGAGCACCAUUUCGCUGCCAGUGAAGAAAUGAACAAAGAAAAUCUGGGCCAGGCAGGCAUCAAAAGAAAUAGUCUUGCGCUCAACCAGAAAGUCUGUAAUCAUUUUAAGGGUA,1.93
10,GUUAACGGUCAUAGGCCAUGGAAACUAGGAGCACCAUUUCGCUGCCAGAGAAGAAAUGAACAAAGUAAAUCUGGGCCAGGCAGGCACCAAAAGAAAUAGUCUUGCGCUCAACCAGGAAGUCCGUAAUCAUUUUAAGGGUA,0.04
11,GUUAACGGUCAUAGGCCAUGGAAGCUAGGAGCACCAUUUCGCUGCCAGUGAAGAAAUGAACAAAGAAAAUCUGGGCCAGGCAGGCAUCAAAAGAAGUAGUCUUGCGCUCAACCAGAAAGUCCGUAAUCAUUUUAAGGGUA,0.87
12,GUUAACGGUCAUAGGCCAUGGAAACUAGGAGCACCAUUUCGCUGCCAGUGAAGAAGAGAACAAAGAAAAUCUGGGCCAGGCAGGCAUCAAGAGAAAUGGUCUUGCGCUCAACCAGAAAGUCUGUAAUCAUUUUAAGGGUA,0.29
13,GUUAACGGUCAUAGGCCAUGGAAACUAGGAGCACCAUUUCGCUGCCAGUGAAGAAAUGAACUGAGAAAAUCUGGGCCAGGCAGGCACCAAAAGAAAUAGUCUUGCGCUCAACCAGAAAGUCUGUAAUCAUUUUAAGGGUA,0.95
14,GUUAACGGUCAUAGGCCAUGGAAACAAGGAGCACCAUUUCGCUGCCAGUGAAGAAAUGAACAAAGAAGAUCUGGGCCAGGCAGGCAUCAAAAGAAAUAGUCUUGUGCUCAACCAGAAAGUCUGUAGUCAUUUUAAGGGUA,0.11
15,GUUAACGGUCAUAGGCCAUGGAAACUAGGAGCACCAUUUCGCUGCCAAUGAAGGAACGAAGAAAGAAAAUCUGGGCCAGGCAGGCAUCAAAAGAAAUAGUCUUGCGCUCAACCAGAAAGUCUGUAAUCAUUUUAAGGGUA,1.11
16,GUUAACGGUCAUAGGCCAUGGAAACUAGGAGCACCAUUUCGCUGCCAGUGAAGAAAUGAACAAAGAAAAUCUGGGCCAGGCAGGCACCAAAAGAAAUAGUCUUGCGCUCAACCAUAAAGUCUGCAAUCAUUUUAAGGGUA,0.01
17,GUUAACGGCCAUAGGCCAUGGAAACUAGGAGCACCAUUUCGCUGCCAGUGAAGAAAUGAACAAAGAAAAUCUGGGCCAGGCAGGCAUCAAAAGAAAUAGUCUUGCACUCAACCAGAAAGUCCGUAAUCAUUUUAAGGGUA,0.01
18,GUUAGCGGUCAUAGGCCAUGGAAACUAGGAGCACCAUUUCGCUGCCAGUGAAGAAAUGAACAAAGAAUAUCUGGGCCAGGCAGGCAUCAAAAGAAGUAGUCUUGCGCUCAACCAGAAAGUCUGUAAUCAUUUUAAGGGUA,1.12
19,GUUAACGGUCAUAGGCCAUGGAAACUAGGAGCACCAUUUCGCUGCCAGUGAAGAAAUGAACAGAGAAAAUCUGGGCCAGGCAGGCACCAAAAGAAAUAGCCUUGCGCGCAACCAGAAAGUCUGUGAUCAUCUUAAGGGUA,0
20,GUUAGCGGUCAUAGGCCAUGGAAACUAGGAGCACCAUUUCGCUGCCAGUGUAGAAAUGAACAAAGAAAAUCUGGGCCAGGCAGGCAUCAAAGGAAAUAGUCUUGCGCUCAACCAGAAAGUCUGUGAUCAUUUUAAGGGUA,0.21
21,GUUAACGGUCAUAGGCCAUGGAAACUAGGAGCACCAUCUCGCUGCCUGAGAAGAAGUGAACAAAGAAAAUCCGGGCCAGGCAGGCAUCAAAAGAAAUAGUCUUGCGCUCAACCAGAAAGUCUGUAAUCAUUUUAAGGGUA,0.1

row,Variant,self-cleavage
1,GUUAACGGUCAUAGGCCAUGGAAACUAGGAGCACCAUUUCGCUGCCAGUGAAUAAAUGAACAAAGAAAAUCUGGGCCAGGCAGGCAUCAAAAGAAAUAGUCAUGCGCUCGACCAGAAAGUCUGUAAUCAUUUUAAGGGUA,0.02
2,GUUAACGGUCAUAGGCCAUGGGAACUAGGAGCACCAUUUCGCUGCCAGUGAAGAAAUGAACUAAGAAAACCUGGGCCAGGCAGGCAUCAAAAGAAAUAGUCUUGCGCUCAACCAGAAAGUCUGUAAUCAUUUUAAGGGUA,1.2
3,GUUAACGGUCAUAGGCCAUGGAAACUAGGAGCACCAUUUCGCUGCCAGUGAAGUAAUGAACAAAGAAAAUCUGGGCCAGGCGGGCAUCGAAAGAACUAGUCUUGCGCUCAACCAGAAAGUCUGUAAUCAUUUUAAGGGUA,0.06
4,GUUAACGGUCAUAGGCCAUGGAAACUAGGAGCACCGUUUCGCUGCCAGUGAAGAAAUGAACAAAGAAAAUCUGGGCCAGGCAGGCAUCAAAAGAAAUAGUCUUGCGCUCAACCAGAAGGUCUGUAAUCAUUAUAAGGGUA,0.36
5,GUUAACGGCCAUAGGCCAUGGAAACUAGGAGCACCAUUACGCUGCCAGUGAAGAAAUGAACAGAGAAAAUCUGGGCCGGGCAGGCAUCAAAAGAAAUAGUCUUGCGCUCAACCAGAAAGUCUGUAAUCAUUUUAAGGGUA,0.33
6,GUUAACGGUCGUAGGCCACGGAAACUAGGAGCACCAUUUCGCUGCCAGUGAAGAAAUGAACAAAGAAAAUCUGGGCCAGGCAGGCAUCAAGAGAAAUAGUCUUGCGCUCAACCAGAAAGUCUGUAAUCAUUUUAAGGGUA,1.1
7,GUUAACGGUCGUAGGCCAUGGAAACUAGGAGCACCAUUUCGUUACCAGUGAAGAAAUGAACAAAGAAAAUCUGGGCCAGGCAGGCAUCAAAAGAAAUAGUCUUGCGCUCAACCAGAAAGUCUGUAAUCAUUUUAAGGGUA,0.42
8,GUUAACGGUCAUAGGCCAUGGUAACUAGGAGCACCAUUUCGCAGCCAGUGUAGAAAUGAACAAAGAAAAUCUGGGCCAGGCAGGCAUCAGAAGAAAUAGUCUUGCGCUCAACCAGAAAGUCUGUAAUCAUUUUAAGGGUA,0.96
9,GUUAACGGUCAUAGGCCAUGGAAACUAGGAGCACCAUUUCGCUGCCUGUGAAGAAAUGAACAAAGAAAAUCUGGGCCAGGCAGGCAUCAAAAGAAAUAGUCUUGCGCUCAACCAGUAAGUCAGUAAUCAUUUGAAGGGUA,0
10,GUUAACGGUCAUAGGCCUUGGAACCUAGGAGCACCAUUUCGCUGCCAGUGAAGAAAUGAACAAAGAAAAUCUGGGCCUGGCAGGCAUCAAAAGGAAUAGUCUUGCGCUCAACCAGAAAGUCUGUAAUCAUUUUAAGGGUA,0.34
11,GUUAACGGUCAUAGGCCAUGGAAACUAGGAGCACCAUUUCGCCGCCAGUGAAGAAGUGAACAAAGAAAACCUGGGCCAGGCAGGCAUCAAAAGAAAUAGUCUUGCGCUCAACCAGAAAGUCCGUAAUCAUUUUAAGGGUA,0.41
12,GUUAACGGUCAUAGGCCAUGGAAACAAGGAGCACCAUUUCGCUGCCAGUGAAGAAAUGUACAAAGAAAACCUGGGCCAGGCAGGCAUCAAAAGAAAUAGUCUUGCGCUCAACCAGAAAGUCUGUAAUCAUUUUAAGGGUA,0.84
13,GUUAACGGCCAUAGGCCAUGGAAACUAGGAGCACCAUUUCGCUGCCAGUGAAGUAAUGAACAAAGAAAAUCUGGGCCAGGCAGGCAUCAAAAGAAAUAGUCUUGCGCUCAACCAGAAAGUCUGUAAUCAUUUUAGGGGUA,2.05
14,GUUAACGGUCAUAGGCCAUGGAAACUAGGAGCACCAUUUCGCUGCCAGUGGAGAAAUGAACAAGGAAAAUCUGGGCCAGGCAGGCAUCAAAAGAAAUAGUCUUGCGCCCAACCAGAAAGUCUGUAAUCAUUUUAAGGGUA,0.02
15,GUUAACGGUCAUAGGCCAUGGAAACUAGGAGCACCAUUUCGCUGCCAGAGAAGAAAUGAACAAAGAAAAUCUGGGCCAGGCAGGCAUCAAAAGAAAUAGUCUUGCGCUCAACCGGAAAGUCUGCAAUCAUUUUAAGGGUA,0.4
16,GUUAACGGUCAUAGGCCAUGGAGACUAGGAGCACCACUUCGCUGCCAGCGAAGAAAUGAACAAAGAAAAUCUGGGCCAGGCAGGCAUCAAAAGAAAUAGUCUUGCGCUCAACCAGAAAGUCUGUAAUCAUUUUAAGGGUA,0.95
17,GUUAACGGUCAUAGGCCAUGGAAACUAGGAGCACCAAUUCGCCGCCAGUGAAGGAGUGAACAAAGAAAAUCUGGGCCAGGCAGGCACCGAAAGAAAUAGUCUUGCGCUCAACCAGAAAGUCUGUAAUCAUUUUAAGGGUA,0.77
18,GUUAACGGUCAUAGGCCAUGGAAACUAGGAGCACCAUUUCGCUGCCAGUGAAGAAAUGAACAAAGAAAAUCUGGGCCAGGCAGGCAUCAAAAGGAAUAGUCUUGCGCUCAACCAGAAAGUCUGUAAUCAUCUUAAGGGUU,0.96
19,GUUAACGGUCAUAGGCCAUGGAAACUAGGAGCACCAUUUCGCUGCCAGUGAAGGACUGAACAAAGAAUAUCUGGGCCAGGCAGGCAUCAAAAGAAAUAGUCUUGCGCUCAACCAGAAAGUCUGUAAUCAUUUUAAGGGUA,1.74
20,GUUAACGGUCAUAGGCCAUGGAAACUAGGAGCACCAUUUCGCUGCCAGUGAAGAAAUGAACAAAGAGAAUCUGGGCCGGGCAGGCAUCAAAAGAAAUAGUCUUACGCUCAACCUGAAAGUCUGUAAUCAAUUUAAGGGUA,0.01
